This is an account of results in article PMC6212790.

The list shows a part of the results. At the low end of the ranking the order means little.

The target of this experiment is T1, GST-Rok (full length) (UniProt O34857).
T1 sequence: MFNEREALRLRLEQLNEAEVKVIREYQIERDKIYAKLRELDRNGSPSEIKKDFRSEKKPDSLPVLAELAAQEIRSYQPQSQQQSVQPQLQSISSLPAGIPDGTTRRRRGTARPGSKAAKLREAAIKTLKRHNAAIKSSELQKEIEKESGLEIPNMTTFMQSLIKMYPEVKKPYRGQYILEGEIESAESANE
The experiment is described as follows: protein binding microarray.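 Also: rank score from −0.5 (least bound) to 0.5 (best bound).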 The following applies: Rok is a gene silencer of Bacillus subtilis; high values mean tight binding; most listed sequences are background and not binding sites; double strand, one strand shown.
Sequence AATTACCT yielded a binding signal of 0.357 E-score.
The sequence AAACGTTC came in with a binding signal of 0.0262 E-score.
Then GTCGCCAA, with -0.178 E-score.
For AGATTCCA the value was 0.00642 E-score; for CAAACACC, -0.0777 E-score.
In turn, ACGGAGAG had a binding signal of -0.253 E-score.
For CAACTTTA the value was 0.0585 E-score; for CTCCTCCC, -0.338 E-score; for CATTTTCA, -0.0649 E-score.
For CCACCAGA the value was -0.259 E-score.
Regarding CAGCGTCC, the binding signal is -0.262 E-score.
For CTCGGTTC the value was -0.22 E-score; for CACTCCGC, -0.146 E-score; for CCGGCTTA, -0.156 E-score.
Then AAATAGCT, with 0.379 E-score.
Then CTGCGCTC, with -0.324 E-score.
In turn, GGTGATAC returned a binding signal of 0.115 E-score.
CCACTTGA had a binding signal of 0.0133 E-score.
As to AGTGCCGC, the binding signal was -0.112 E-score.
With ATCGATTG, the binding signal was determined as 0.135 E-score.
Take CGTATAGC: the binding signal was found to be 0.139 E-score.
AACGCGAA had a binding signal of 0.0271 E-score.
Consider GATCTTGA, for which the binding signal was determined as 0.0464 E-score.
As for AGAATAGG, the binding signal is -0.105 E-score.
In turn, ATTGGTTG came in with a binding signal of 0.0567 E-score.
Then CAACCCAG, with -0.294 E-score; and AGTTGTAT, with 0.263 E-score; and CCTTGCTC, with -0.154 E-score.
For AGCACTAC the value was 0.0734 E-score.
For the sequence CCGCTCAC, the binding signal was -0.126 E-score.
For CAGTTTTA the value was 0.177 E-score.
Then CTTATGCC, with -0.123 E-score; and TGCTCCCA, with -0.121 E-score; and AACGGACC, with -0.202 E-score.
Turning to AGAAACCG, the binding signal came to 0.0282 E-score.
For CATCAGAA the value was -0.0234 E-score; for AACAAAGC, 0.0723 E-score; for TAGTGACA, 0.152 E-score.
For GTGTTAGA the value was 0.122 E-score; for AAACCAGT, -0.095 E-score; for CTCGACAC, -0.0782 E-score.
Turning to ACAGGTAG, the binding signal stood at 0.0614 E-score.
Then CAGTGAGA, with -0.0231 E-score; and ACTTGGAA, with 0.18 E-score.
The sequence AGTGCTAA showed a binding signal of 0.159 E-score.
AGTAACTA gave a binding signal of 0.421 E-score.
For ATGAGCTA the value was 0.199 E-score; for GCTGAAAC, -0.111 E-score; for AGTCATTG, -0.00897 E-score.
For ACCGCATC, the binding signal is -0.0255 E-score.
Then CAGCTGAG, with -0.123 E-score; and AGTAGAGA, with 0.265 E-score; and TGGGCAAA, with -0.0755 E-score.
CGTTTAGC yielded a binding signal of 0.0496 E-score.
Regarding ATTGACAC, the binding signal stood at 0.00272 E-score.
For CGGAGCAC the value was -0.28 E-score.
For AATTTATG the value was 0.283 E-score.
In turn, ACCATCCA came in with a binding signal of 0.106 E-score.
For GGCAATAC the value was -0.0437 E-score.
For the sequence TCTGCACA, the binding signal was -0.113 E-score.
Then CCACCCAC, with -0.049 E-score; and GATAACAC, with 0.273 E-score.
Then CTTCGTGA, with 0.0399 E-score.
TACCAAAA yielded a binding signal of 0.165 E-score.
On to AAGTCTTC, for which the binding signal was 0.00857 E-score.
Turning to AGATGACG, the binding signal was -0.0754 E-score.
For the sequence ATATTGCG, the binding signal came out at 0.0933 E-score.
For CGTAGTCA the value was -0.185 E-score.
For CACGGCCG the value was -0.15 E-score; for GGCTTCCC, -0.407 E-score; for CACAGTTA, 0.147 E-score.
In turn, ACATCACA returned a binding signal of 0.0131 E-score.
For AGGCCAGA the value was -0.179 E-score; for AAAATTCA, 0.0405 E-score.
For GGCCGTAC the value was -0.149 E-score; for CACCGCGC, -0.13 E-score; for GACGTGTA, 0.0526 E-score.
For the sequence ATTGAGAG, the binding signal is -0.127 E-score.
Regarding AATGCTGC, the binding signal was -0.0901 E-score.
Turning to AATAACAG, the binding signal came to 0.127 E-score.
Sequence ATGTCCTG gave a binding signal of -0.128 E-score.
For CCCGCTAC the value was -0.221 E-score; for ACAAATGA, 0.0302 E-score.
GCTTATCC showed a binding signal of -0.18 E-score.
As to GCGTATGA, the binding signal amounted to 0.289 E-score.
On to GGAGGCAA, for which the binding signal is -0.0319 E-score.
The sequence ATAAACGC returned a binding signal of 0.0517 E-score.
For ATATTTGG the value was 0.0495 E-score; for ACCCCCGC, -0.314 E-score.
CCTACCTC: the binding signal is 0.0499 E-score.
For GAAGGAGA the value was -0.104 E-score; for ATCGAGAC, -0.197 E-score; for GAGGCGCC, -0.384 E-score.
Then AATGGCCA, with -0.0589 E-score; and CACTGTTC, with -0.0185 E-score.
As for CACATCGC, the binding signal was -0.127 E-score.
For the sequence ATGGGACA, the binding signal was -0.203 E-score.
For GCGCCAAC the value was -0.241 E-score; for AATCCATA, 0.176 E-score; for CATTACCC, 0.00557 E-score.
For AAACTTGA the value was 0.0856 E-score.
Then ACCTCCTC, with -0.132 E-score; and CTAGAAAG, with 0.094 E-score.
Take AGACGCGA: the binding signal is -0.21 E-score.
For CGGTTTGC the value was 0.136 E-score; for TCCGCTAA, 0.119 E-score; for CAGTTTCA, -0.0996 E-score.
For CTGCTCTC the value was -0.242 E-score; for GCATTGCC, -0.155 E-score.
Then ACCCAAGT, with -0.0213 E-score; and CCATTAAG, with -0.00115 E-score; and AGGCCCAT, with -0.255 E-score.
With CCATTAAA, the binding signal was -0.117 E-score.
For AAGGGTGC the value was -0.212 E-score.
For GTTCGACA the value was 0.0353 E-score.
Sequence CAGGGTGC yielded a binding signal of -0.277 E-score.
Then ATACTTTA, with 0.239 E-score; and CGGCGGTA, with -0.0463 E-score; and AGATATAG, with 0.151 E-score.
For AGCTGAGA the value was -0.0281 E-score; for ACAACCGC, 0.0131 E-score; for GGCGTCTA, -0.277 E-score.
For CGAGTGCC the value was -0.235 E-score; for ACTGCGGG, -0.141 E-score.
TTCAGGAA registered a binding signal of 0.0134 E-score.
For CCAAGTCA the value was -0.00458 E-score; for TGCCGGAA, -0.201 E-score.
For CTTGGAGC the value was -0.225 E-score; for TATCGTCA, 0.107 E-score.
In the case of CGGACATC, the binding signal is -0.133 E-score.
In turn, CGGCGTAG came in with a binding signal of -0.0629 E-score.
Then AACCACTT, with 0.0602 E-score; and AGCACAGG, with -0.256 E-score.
As to AGCTTTGC, the binding signal is -0.152 E-score.
In the case of CTGCTTCA, the binding signal is -0.205 E-score.
Then AAGAGCGA, with -0.102 E-score.
For AGCATACA the value was 0.0248 E-score; for AGGTTTCA, -0.273 E-score; for AGTTGGTA, 0.151 E-score.
For CGTCCACC the value was -0.298 E-score; for TCCATCCA, 0.0123 E-score.
On to GACTGCTC, for which the binding signal is -0.0721 E-score.
For ATGGGTCC, the binding signal was -0.121 E-score.
Then TCAATGAA, with -0.0589 E-score; and AAAGTCCC, with -0.263 E-score.
For ATAAATCA the value was 0.0619 E-score.
ACCATACA returned a binding signal of 0.107 E-score.
Then ACCGGTCC, with -0.232 E-score; and ACTACGAA, with 0.194 E-score; and TATAGACA, with 0.0231 E-score.
On to CATGCTTA, for which the binding signal worked out at 0.00454 E-score.
In turn, CCGGATCC registered a binding signal of -0.109 E-score.
For CCTAGGTA the value was 0.0506 E-score.
As to AGGTGACA, the binding signal is 0.0342 E-score.
Sequence TGACGACA yielded a binding signal of -0.21 E-score.
Take CCTGCGTA: the binding signal is -0.118 E-score.
ATCCCCCC yielded a binding signal of -0.32 E-score.
Then ACGATGCC, with -0.0186 E-score.
For ATACCTAT the value was 0.333 E-score; for CGGATGGA, -0.156 E-score.
In turn, GGGGTCAA yielded a binding signal of -0.424 E-score.
In the case of AAAATGTG, the binding signal worked out at 0.174 E-score.
TGCGGTAA displayed a binding signal of 0.0849 E-score.
Turning to GCATACGA, the binding signal worked out at 0.203 E-score.
Then CGTGACAC, with -0.246 E-score; and CCGCTACG, with -0.107 E-score; and AAAGTACC, with 0.27 E-score.
Then CCACAAAA, with 0.0709 E-score.
In turn, CTACTTCC showed a binding signal of 0.155 E-score.
Then GAGCGATC, with -0.193 E-score.
Then CAATGTGA, with 0.104 E-score; and CCTGTTGC, with -0.247 E-score; and AGGGGGAC, with -0.402 E-score.
For ATTGGGAG the value was -0.0851 E-score; for CGGGCGTA, -0.0959 E-score.
In turn, GGTACTAA came in with a binding signal of 0.138 E-score.
For GATCTATA the value was 0.307 E-score; for ACTAGATG, 0.339 E-score; for AGGAAGCG, -0.117 E-score.
GACGCCCA returned a binding signal of -0.419 E-score.
Sequence AGTAATGG yielded a binding signal of 0.13 E-score.
Then CAAGCGAA, with -0.229 E-score.
Then ACTAGTCA, with 0.352 E-score.
Then ATAGTCAG, with 0.131 E-score; and GGCCGACA, with -0.26 E-score; and GATTGGGC, with -0.307 E-score.
GGCATGAC showed a binding signal of -0.16 E-score.
CTCGCAAA yielded a binding signal of -0.0472 E-score.
For GGCAGGCC the value was -0.332 E-score.
For ATGGGCCC the value was -0.273 E-score.
Then CTTCTAAA, with -0.00526 E-score.
In turn, GACAGAGC returned a binding signal of -0.145 E-score.
As to ATTCGAAC, the binding signal is 0.223 E-score.
For AAGGCGCA the value was -0.234 E-score; for ACCTGTAA, -0.0623 E-score.
In turn, CCGCGTCC came in with a binding signal of -0.336 E-score.
In turn, GCCGGAAC came in with a binding signal of -0.198 E-score.
Then GCACGCGC, with -0.178 E-score; and AGTGCAGA, with -0.148 E-score.
For AGTACGGC the value was 0.0681 E-score; for ACGGAAAC, -0.0398 E-score; for AGAATACT, 0.271 E-score.
Then GGCTGTCA, with -0.237 E-score.
Consider GGGCTGCA, for which the binding signal is -0.287 E-score.
For the sequence CCTCAGGC, the binding signal was -0.359 E-score.
For GCCCCGCC the value was -0.407 E-score; for ATGCATCA, 0.144 E-score; for CAAATGCA, -0.0824 E-score.
In turn, AGGACGAT had a binding signal of -0.175 E-score.
Then GGCCTCAC, with -0.29 E-score.
For ATCTGGTA the value was 0.107 E-score; for CGGTCGCC, -0.339 E-score; for AGATGTTC, 0.114 E-score.
Sequence ACCAGTAC yielded a binding signal of 0.149 E-score.
For ATGCCATC the value was -0.13 E-score; for AGTTTCAT, 0.217 E-score.
As to CGTCGTCC, the binding signal is -0.195 E-score.
For AAAGGCAA the value was -0.148 E-score; for TCTGTACA, 0.0326 E-score.
